{
  "source": "PubChem BioAssay AID485281",
  "about": "(National Center for Advancing Translational Sciences (NCATS), 2010)",
  "note": "The whole screen tested about 350,000 compounds, of which about 260 (0.074%) were called active. The shares of active, inactive and inconclusive entries below differ from those in the screen. Calls come from the whole dose curve; as a rule, active = well fitted inhibition curve with a large enough effect; inconclusive = small, poorly fitted or top-dose-only effect; inactive = no such curve, though single readings can be large or run the other way. Where the call is inconclusive, the potency comes from a doubtful curve fit. Potency is the fitted concentration of half-maximal effect; tags give direction and shape of the fitted curve.",
  "data": [
    {"biological_target": "Ferritin light chain (Equus caballus) (UniProt P02791)", "sequence (P02791 whole entry, looked up)": "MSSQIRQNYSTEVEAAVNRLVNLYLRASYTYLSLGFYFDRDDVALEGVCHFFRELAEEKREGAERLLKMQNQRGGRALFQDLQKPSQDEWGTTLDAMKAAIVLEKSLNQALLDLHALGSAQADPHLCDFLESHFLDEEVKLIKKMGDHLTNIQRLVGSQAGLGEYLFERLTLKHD", "assay": "qHTS Assay for Identification of Novel General Anesthetics; note: nearly all actives have a fitted effect of over 20% in size", "conditions": "apoferritin/1-aminoanthracene competitive binding, fluorescence; series mostly up to 77.5 µM", "in_short": "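Steps: apoferritin (10 uM) was premixed with half-saturated 1-AMA in PBS, compounds were pin-transferred, plates stood 10 min at room temperature, fluorescence was read at 380/535 nm, and curves were fitted with a Hill equation.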", "values": [
      {"smiles": "CCc1nnc(NS(=O)(=O)c2ccc(NC(=S)NC(=O)/C=C/c3ccccc3)cc2)s1", "Potency": "inactive"},
      {"smiles": "Cc1cc(C)cc(NC(=O)C2CCCN2S(=O)(=O)c2ccc3c(c2)C(C)(C)C(=O)N3C)c1", "note": "(stereo unspecified)", "Potency": "inconclusive: 50.1 µM [inhibitor, single point]"},
      {"smiles": "COc1cc(/C=N\\NC(=O)c2ccc(Cl)cc2)ccc1Oc1ccc([N+](=O)[O-])cn1", "Potency": "inactive"},
      {"smiles": "C/C(=N\\NC(=O)C(C)Oc1ccc([N+](=O)[O-])cc1)c1ccccn1", "note": "(stereo unspecified)", "Potency": "inconclusive: 10 µM [inhibitor, partial curve]"},
      {"smiles": "COc1cc(/C=C\\C(=O)OCn2nnc3ccccc3c2=O)cc(OC)c1OC", "Potency": "inconclusive: 22.4 µM [inhibitor, partial curve]"},
      {"smiles": "O=C(O)c1ccc(/C=N/n2cc(-c3ccccc3)[nH]c2=S)cc1", "Potency": "inactive"},
      {"smiles": "COc1ccc(-n2nnnc2SCC(=O)c2cccc(OC)c2)cc1", "Potency": "inconclusive: 35.5 µM [inhibitor, partial curve]"},
      {"smiles": "CC(C)NC(=O)c1ccc2c(=O)n(CC3CCCO3)c(=S)[nH]c2c1", "note": "(stereo unspecified)", "Potency": "inactive"},
      {"smiles": "COc1cccc(CSc2nc3ccccc3[nH]2)c1", "Potency": "inconclusive: 56.2 µM [inhibitor, single point]"},
      {"smiles": "Cc1c(C)c2c(OCC(=O)O)cc3c(c2oc1=O)CCC(C)(C)O3", "Potency": "inactive"},
      {"smiles": "Cn1cccc1C(=O)OCc1ccc(F)cc1", "Potency": "inconclusive: 31.6 µM [inhibitor, single point]"},
      {"smiles": "FC(F)(F)c1ccc(C2NCCc3sccc32)cc1", "note": "(stereo unspecified)", "Potency": "inconclusive: 35.5 µM [inhibitor, partial curve]"},
      {"smiles": "COc1ccc(-n2c(SCC(=O)N3CCCCC3)nc(O)cc2=O)cc1", "Potency": "inconclusive: 31.6 µM [inhibitor, single point]"},
      {"smiles": "CCCCCc1cc(=O)oc2c(C(CCN(CC)CC)c3ccc(N(C)C)cc3)c(OC)cc(OC)c12", "note": "(stereo unspecified)", "Potency": "inconclusive: 14.1 µM [inhibitor, partial curve]"},
      {"smiles": "COc1ccc(-c2cc(C(=O)Nc3ccccc3O)c3ccccc3n2)cc1OC", "Potency": "inconclusive: 25.1 µM [inhibitor, partial curve]"},
      {"smiles": "CC1CCc2c(sc3nnn(Cc4ccccc4)c(=O)c23)C1", "note": "(stereo unspecified)", "Potency": "inconclusive: 25.1 µM [inhibitor, partial curve]"},
      {"smiles": "COc1ccc(/C=N\\NC(=O)CNC(=O)C2COc3ccccc3O2)cc1[N+](=O)[O-]", "note": "(stereo unspecified)", "Potency": "inconclusive: 44.7 µM [inhibitor, single point]"},
      {"smiles": "CCOc1ccccc1-c1nc(-c2cc3ccc(C)cc3[nH]c2=O)no1", "Potency": "inactive"},
      {"smiles": "CC(C)c1nnc(NC(=O)c2nc(S(=O)(=O)Cc3ccc(F)cc3)ncc2Cl)s1", "Potency": "inactive"},
      {"smiles": "Cc1c(C(=O)NC2CCCCC2)oc2ccccc12", "Potency": "inconclusive: 20 µM [inhibitor, partial curve]"},
      {"smiles": "CC(Sc1ccc2ccccc2c1)C(=O)NC(N)=O", "note": "(stereo unspecified)", "Potency": "inconclusive: 28.2 µM [inhibitor, partial curve]"},
      {"smiles": "CC(C)Cn1c(=O)c2sccc2n2c(CCCC(=O)NCC(C)c3ccccc3)nnc12", "note": "(stereo unspecified)", "Potency": "inactive"},
      {"smiles": "CC1=CC(=O)C=C(C)C1=NOS(=O)(=O)c1ccccc1", "Potency": "inconclusive: 35.5 µM [inhibitor, single point]"},
      {"smiles": "CC(=O)Nc1nonc1-c1nnc(SCc2ccccc2C)n1C", "Potency": "inconclusive: 31.6 µM [inhibitor, single point]"},
      {"smiles": "CCCCCCCCCCn1c2c(c(=N)c3c1CCC3)CCC2", "Potency": "inconclusive: 17.8 µM [inhibitor, partial curve]"},
      {"smiles": "Cc1cccc(CS(=O)(=O)c2ncc(Cl)c(C(=O)Nc3ccc(F)cc3)n2)c1", "Potency": "inconclusive: 35.5 µM [inhibitor, partial curve]"},
      {"smiles": "COc1cc(C(CCN2CCCC(C)C2)c2c(OC)cc(OC)c3c(-c4ccccc4)cc(=O)oc23)cc(OC)c1OC", "note": "(stereo unspecified)", "Potency": "inconclusive: 28.2 µM [inhibitor, partial curve]"},
      {"smiles": "Cc1ccc(Cl)cc1NC(=O)C[n+]1ccc(Cc2ccc([N+](=O)[O-])cc2)cc1", "Potency": "inconclusive: 39.8 µM [inhibitor, single point]"},
      {"smiles": "CN(C)c1ccc(/C=C/C(=O)c2cccc(Br)c2)cc1", "Potency": "inactive"},
      {"smiles": "C=CC(=O)NC1CC2CCC1(C)C2(C)C", "note": "(stereo unspecified)", "Potency": "inconclusive: 56.2 µM [inhibitor, partial curve]"},
      {"smiles": "Cc1csc(NC(=O)C2CCCCC2)n1", "Potency": "inconclusive: 35.5 µM [inhibitor, single point]"},
      {"smiles": "Cc1ccc(C)c(N2N=C(C(=O)Nc3ccccc3N3CCCC3)CCC2=O)c1", "Potency": "inconclusive: 39.8 µM [inhibitor, partial curve]"},
      {"smiles": "COc1ccc(NC(=O)Cn2cc(S(=O)(=O)c3ccc(C)cc3)c(=O)c3ccccc32)cc1OC", "Potency": "inconclusive: 5.62 µM [inhibitor, partial curve]"},
      {"smiles": "COc1ccccc1C(c1nnnn1C(C)(C)C)N1CCCCCC1", "note": "(stereo unspecified)", "Potency": "inconclusive: 39.8 µM [inhibitor, single point]"},
      {"smiles": "CC1CCCN(C(C(=O)Nc2ccc3c(c2)OCO3)c2ccccc2)C1", "note": "(stereo unspecified)", "Potency": "inconclusive: 22.4 µM [inhibitor, partial curve]"},
      {"smiles": "COc1cc(/C=C2\\SC(=O)N(CC(=O)Nc3ccc(C)cc3)C2=O)cc(Cl)c1OCC(=O)O", "Potency": "inactive"},
      {"smiles": "CCc1ccccc1NC(=O)CSC1=C(C#N)C(c2ccc3c(c2)OCO3)C2=C(CCCC2=O)N1", "note": "(stereo unspecified)", "Potency": "inconclusive: 10 µM [inhibitor, partial curve]"},
      {"smiles": "O=C(c1ccccc1)c1ccc2ccccc2n1", "Potency": "inconclusive: 25.1 µM [inhibitor, partial curve]"},
      {"smiles": "CC1CCCN(c2nc(NCc3ccco3)nc(N)c2[N+](=O)[O-])C1", "note": "(stereo unspecified)", "Potency": "inconclusive: 14.1 µM [inhibitor, partial curve]"},
      {"smiles": "CCCC(=O)NC(=S)Nc1ccc(Cl)cn1", "Potency": "inconclusive: 20 µM [inhibitor, partial curve]"},
      {"smiles": "CCN(CC)C(=O)c1sc2nc(N3CCOCC3)c3c(c2c1N)CCCC3", "Potency": "inactive"},
      {"smiles": "CCc1ccc(Oc2nc3c(C)cccn3c(=O)c2/C=C(\\C#N)c2nc3ccccc3[nH]2)cc1", "Potency": "inconclusive: 22.4 µM [inhibitor, partial curve]"},
      {"smiles": "COc1ccc(-c2nnc3n2N=C(C)CS3)cc1", "Potency": "inactive"},
      {"smiles": "Cc1c(C)c(C)c(S(=O)(=O)NCCc2ccccn2)c(C)c1C", "Potency": "inconclusive: 28.2 µM [inhibitor, partial curve]"},
      {"smiles": "COCCn1nnnc1C(c1cc2cc(C)ccc2[nH]c1=O)N1CCc2ccccc21", "note": "(stereo unspecified)", "Potency": "inconclusive: 20 µM [inhibitor, partial curve]"},
      {"smiles": "Nc1ccc(-c2nc3ccc(-c4nc5ccc(N)cc5[nH]4)cc3[nH]2)cc1", "Potency": "inactive"},
      {"smiles": "CC(C)OC(=O)c1ccc(Cn2nnc3ccccc3c2=O)cc1", "Potency": "inconclusive: 50.1 µM [inhibitor, partial curve]"},
      {"smiles": "COC(=O)c1ccc(COc2ccccc2/C=N/NS(=O)(=O)c2ccccc2)cc1", "Potency": "inconclusive: 11.2 µM [inhibitor, partial curve]"},
      {"smiles": "Cc1cccc(C(=O)NCC(c2ccc3c(c2)OCO3)N2CCN(c3ccccc3F)CC2)c1", "note": "(stereo unspecified)", "Potency": "inconclusive: 2 µM [inhibitor, partial curve]"},
      {"smiles": "COc1ccc(-c2nc(CS(=O)(=O)CC(=O)NC3CCCCCC3)c(C)o2)cc1", "Potency": "inconclusive: 3.55 µM [inhibitor, partial curve, poor fit]"},
      {"smiles": "Cc1cc(C)cc(OCc2nnc(SCC(=O)c3ccccc3)o2)c1", "Potency": "inconclusive: 35.5 µM [inhibitor, single point]"},
      {"smiles": "CCOC(=O)c1sc2ncn(C(CC)C(=O)OCC)c(=O)c2c1C", "note": "(stereo unspecified)", "Potency": "inconclusive: 44.7 µM [inhibitor, single point]"},
      {"smiles": "CCOc1ccccc1CNC(=O)C1CCN(C2=NS(=O)(=O)C(c3ccc(C)c(C)c3)=C2C)CC1", "Potency": "inconclusive: 14.1 µM [inhibitor, partial curve]"},
      {"smiles": "O=C(c1cc(COc2ccc3ncccc3c2)on1)N1CCC(O)CC1", "Potency": "inconclusive: 31.6 µM [inhibitor, single point]"},
      {"smiles": "COc1ccc(OC)c(NC(=O)CC2SC(=N)N(c3ccccc3)C2=O)c1", "note": "(stereo unspecified)", "Potency": "inconclusive: 39.8 µM [inhibitor, single point]"},
      {"smiles": "Cc1cccc2sc(NC(=O)CSCc3ccccc3)nc12", "Potency": "inconclusive: 50.1 µM [inhibitor, partial curve]"},
      {"smiles": "CCOc1ccc(C(=O)NCCc2csc(-c3ccc(C(F)(F)F)cc3)n2)cc1OCC", "Potency": "inactive"},
      {"smiles": "COc1ccc(S(=O)(=O)CC(=O)c2cc3cc(Br)ccc3oc2=O)cc1", "Potency": "inconclusive: 25.1 µM [inhibitor, partial curve]"},
      {"smiles": "COc1cc(OC)c(NC(=O)c2ccc(Br)o2)cc1Cl", "Potency": "inconclusive: 15.8 µM [inhibitor, partial curve]"},
      {"smiles": "COc1ccc2oc(C(=O)NC(C)(C)C)c(C)c2c1", "Potency": "inactive"},
      {"smiles": "CC1CCC2(CC1)NC(=O)N(CC(=O)c1ccc(Cl)s1)C2=O", "note": "(stereo unspecified)", "Potency": "inconclusive: 31.6 µM [inhibitor, partial curve]"},
      {"smiles": "O=C(N/N=C/c1coc2ccccc2c1=O)c1cc(O)cc(O)c1", "Potency": "inconclusive: 25.1 µM [inhibitor, single point]"},
      {"smiles": "CCOc1ccc(C(CCc2ccccc2)NC(=O)c2ccc(OC)c(OC)c2)cc1OCC", "note": "(stereo unspecified)", "Potency": "inconclusive: 7.94 µM [inhibitor, full curve, poor fit]"},
      {"smiles": "CN(C)c1nc2n(c(=O)n1)CCS2", "Potency": "inactive"},
      {"smiles": "CC(C)Oc1cccc(C(=O)N/N=C/c2coc3ccccc3c2=O)c1", "Potency": "inconclusive: 12.6 µM [inhibitor, partial curve]"},
      {"smiles": "Cc1ccc([C@H]2Nc3ccc(S(=O)(=O)Nc4cccc(Cl)c4C)cc3[C@H]3C=CC[C@H]32)cc1", "Potency": "inconclusive: 14.1 µM [inhibitor, partial curve]"}
    ]}
  ]
}
